The campaign covered roughly 310,000 compounds. About 2,200 (0.71%) showed an effect of 50% or more. Effects have a minus sign here. The list shows a part of the results.
These molecules were tested against human ether-à-go-go-related gene (hERG) potassium channel (human, UniProt Q12809) (assay: primary screen, population patch clamp on CHO cells stably expressing hERG).
Sequence of human ether-à-go-go-related gene (hERG) potassium channel (Q12809 whole entry, looked up): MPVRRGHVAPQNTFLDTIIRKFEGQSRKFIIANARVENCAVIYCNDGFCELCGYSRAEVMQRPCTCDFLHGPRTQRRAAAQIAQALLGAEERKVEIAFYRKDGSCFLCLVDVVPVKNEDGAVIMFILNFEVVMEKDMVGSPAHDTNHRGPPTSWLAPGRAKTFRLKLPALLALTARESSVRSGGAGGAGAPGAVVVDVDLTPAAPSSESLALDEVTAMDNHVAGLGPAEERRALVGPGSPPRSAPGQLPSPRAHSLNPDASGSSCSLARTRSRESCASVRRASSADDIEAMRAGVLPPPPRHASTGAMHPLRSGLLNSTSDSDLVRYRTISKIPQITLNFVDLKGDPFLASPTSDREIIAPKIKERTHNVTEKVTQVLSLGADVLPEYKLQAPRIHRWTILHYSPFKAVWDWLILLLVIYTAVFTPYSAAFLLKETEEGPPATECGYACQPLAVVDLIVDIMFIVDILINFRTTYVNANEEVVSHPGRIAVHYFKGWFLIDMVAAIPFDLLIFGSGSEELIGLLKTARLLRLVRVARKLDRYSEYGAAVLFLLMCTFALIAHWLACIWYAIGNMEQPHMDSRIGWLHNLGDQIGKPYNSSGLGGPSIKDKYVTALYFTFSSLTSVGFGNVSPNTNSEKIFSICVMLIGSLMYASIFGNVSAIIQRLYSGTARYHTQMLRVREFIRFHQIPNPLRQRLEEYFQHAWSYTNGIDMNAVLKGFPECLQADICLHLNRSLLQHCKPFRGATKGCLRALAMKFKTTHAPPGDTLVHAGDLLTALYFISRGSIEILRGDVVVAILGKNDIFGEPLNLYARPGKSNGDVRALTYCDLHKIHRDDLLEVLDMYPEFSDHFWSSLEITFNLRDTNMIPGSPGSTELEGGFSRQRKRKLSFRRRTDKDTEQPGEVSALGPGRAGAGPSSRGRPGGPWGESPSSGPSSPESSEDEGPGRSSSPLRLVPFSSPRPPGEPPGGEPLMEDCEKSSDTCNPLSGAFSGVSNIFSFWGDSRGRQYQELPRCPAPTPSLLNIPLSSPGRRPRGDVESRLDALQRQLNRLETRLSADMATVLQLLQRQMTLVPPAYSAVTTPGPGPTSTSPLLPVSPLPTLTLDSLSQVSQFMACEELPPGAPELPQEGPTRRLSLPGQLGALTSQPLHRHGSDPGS

Point of comparison: Cc1ccc(NC(=O)[C@H](C)NC(=O)C2CCN(C(=O)[C@@H](N)C(C)C)CC2)cc1, “hERG current change (%, negative = inhibition) at 1uM” value 11.9%. Against it:
- COc1ccc(NS(=O)(=O)c2cccc(C(=O)NNC(=O)c3cc(S(N)(=O)=O)ccc3OC)c2)cc1 — lower, -8.24%
- O=S(=O)(NC(=NCCc1ccc(Cl)cc1)c1ccccc1Cl)c1cccs1 — lower, -4.53%
- Cc1ccc(C(=O)CN2C(=O)NC3(CCOc4ccccc43)C2=O)s1 (centres unmarked) — lower, 2.46%
- Cc1ccc(NC(=O)C2CCN(S(=O)(=O)c3ccccc3)CC2)cc1 — lower, 9.45%
- COc1ccc(C(=O)N2CC(=O)Nc3ccccc32)cc1S(=O)(=O)N1CCOCC1 — lower, 11.5%
- COC(=O)C1=C(C)N(C)C(=O)NC1c1ccccc1 (centres unmarked) — lower, -1.56%
- CCC(C)(C)C1CCc2c(sc(NC(=O)c3ccoc3C)c2C(N)=O)C1 (centres unmarked) — higher, 15.3%
- COc1ccc(-n2c(=O)c(CCC(=O)N(C)Cc3ccccc3C)nc3ccccc32)cc1 — lower, 1.09%
- C=C1CCN([C@H](C(=O)NCc2cc(OC)c(OC)c(OC)c2)C(C)C)S(=O)(=O)c2ccccc21 — lower, 5.44%
- COc1ccc(NC(=O)CN2CCN(CC(=O)Nc3ccccc3F)CC2)c(OC)c1 — lower, -19.6%
- COc1cc(/C=N/NC2=NC(C)(C)Cc3ccccc32)cc(OC)c1OC — lower, 9.85%
- CCOc1ccc(NC(=O)c2c3c(nc4ccccc24)CCC3)cc1 — lower, 10.9%
- Cc1sc(NC(=O)CSc2nnnn2C2CCCC2)c(C#N)c1C — lower, 3.2%
- CN(C)CCNc1oc(-c2ccccc2F)nc1C#N — lower, -2.49%
- Cc1ccc(C2C(C(=O)O)c3ccccc3C(=O)N2C)c(C)c1 (centres unmarked) — lower, -5.66%
- COc1ccc2nc(NCCNC(=S)NCCCN3CCOCC3)c(C#N)cc2c1 — lower, 9.15%
- O=S(=O)(NCc1ccccc1)c1cccs1 — lower, 9.54%
- CC(CCc1ccccc1)NC(=O)N1CCOCC1 (centres unmarked) — lower, 0.544%
- COc1ccc(-c2cc(=O)c3ccccc3[nH]2)cc1 — lower, 10.1%
- NC(=O)NCc1cccc(Cl)c1 — lower, 9.96%
- CCc1c(O)nc(SCC(=O)Nc2ccccc2C)[nH]c1=O — lower, 9.34%
- O=C(Nc1ccccc1C(=O)O)c1ccc(NC(=O)c2ccc(Br)o2)cc1 — higher, 17%
- O=C1C=C(N2CCN(C(=O)c3ccccc3)CC2)C2(CCCCC2)O1 — lower, -1.92%
- CC1=NN(S(=O)(=O)c2ccc(Cl)cc2Cl)C(=O)c2ccccc2O1 — lower, 10.2%
- COc1ccc(NC2CCCN(C(=O)c3cn(C)c4ccccc34)C2)cc1 (centres unmarked) — higher, 19.3%
- O=C1CN(c2nc3nonc3nc2N2CCCCC2)CCN1 — lower, 9.69%
- CCNC(=S)NNC(=O)c1cc(C2CC2)nc2ccccc12 — lower, -6.45%
- O=C1CC2(CCN(C(=O)COc3ccccc3)CC2)Oc2ccccc21 — lower, -21.4%
- O=C(Cc1ccccc1)NCCn1ccc2ccccc21 — lower, 6.68%
- Cc1ccc(C)c(NC(=O)C2CCCN(c3cnccn3)C2)c1 (centres unmarked) — lower, 3.15%
- C#CCNC(=O)C1=C[C@@H](c2cn(C(C)=O)c3ccccc23)C[C@@H](OCCCCO)O1 — lower, -13.8%
- CC(=O)Nc1ccc(NCC(O)COc2ccccc2)cc1.Cl (centres unmarked) — lower, -7.4%
- COc1cc(CNCCc2c[nH]c3ccccc23)ccc1OCc1ccccc1F.Cl — lower, -4.68%
- O=C(O)CCCn1nc(C(F)(F)F)c2c1CCCCC2 — lower, 1.68%
- O=C(CSc1nc2ccccc2c(=O)n1-c1ccc(F)cc1)Nc1ccc(Cl)c(S(=O)(=O)N2CCOCC2)c1 — lower, 7.78%
- CCCCCc1ccc(-c2ccc(OCC)cc2)nc1 — lower, -1.27%
- CSc1ccccc1-n1nnnc1SCC(=O)Nc1cc(C)ccc1C — lower, 6.15%
- COC(=O)c1nc2ccccn2c1F — higher, 13.8%
- Cn1nc(C(=O)Nc2nc3ccccc3[nH]2)ccc1=O — lower, 7.15%
- CCOC(=O)c1ccc(S(=O)(=O)Nc2ccc3cn[nH]c3c2)cc1 — lower, 0.571%
- S=C1N(c2ccccc2)C(c2ccc(Br)cc2)N2CCCN12 (centres unmarked) — lower, 11.6%
- COC(=O)[C@H](CCSC)NC(=O)NCCC1=CCCCC1 — lower, 1.7%
- Cc1cccc(/C=N/NC(=O)c2cc3c(s2)-c2ccccc2CC3)c1 — higher, 12.7%

Source: article PMC4336329 (PLoS ONE, 2015)
